Source: the supplement of paper PMC4967469

Key:
Experiment in all cases: Viability of human cancer cell lines after 72 h of drug (GDSC screen)
BMS-536924 = compound: Cc1cc(N2CCOCC2)cc2[nH]c(-c3c(NC[C@@H](O)c4cccc(Cl)c4)cc[nH]c3=O)nc12 [BMS-536924]
Method: (§1)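 Human cancer cell lines in 384-well plates, medium with 10% serum, drug for 72 h over a 256-fold dose range (nine 2-fold or five 4-fold steps up to the top dose). Adherent lines were fixed and stained with the nucleic acid dye Syto60, suspension lines read with resazurin; signal relative to control wells, capped at 0 and 100%. One two-parameter sigmoid per drug and line, fitted in a mixed model over all curves with the slope shared within a line.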

BIRB 0796 = compound: Cc1ccc(-n2nc(C(C)(C)C)cc2NC(=O)Nc2ccc(OCCN3CCOCC3)c3ccccc23)cc1 [BIRB 0796]; settings: top dose 10 µM; top dose inferred
Method: as §1

SB-525334 = compound: Cc1cccc(-c2[nH]c(C(C)(C)C)nc2-c2ccc3nccnc3c2)n1 [SB-525334]; settings: top dose 20 µM; top dose inferred
Method: as §1

HG-5-113-01 = compound: CNC(=O)c1ccc(Nc2cc(Nc3ccccc3S(=O)(=O)C(C)C)c3cc[nH]c3n2)nc1 [HG-5-113-01]; settings: top dose 10 µM; top dose inferred
Method: as §1

Olaparib = compound: O=C(c1cc(Cc2n[nH]c(=O)c3ccccc23)ccc1F)N1CCN(C(=O)C2CC2)CC1 [Olaparib]
Method: as §1

A-770041 = compound: COc1cc(-c2nn([C@H]3CC[C@H](N4CCN(C(C)=O)CC4)CC3)c3ncnc(N)c23)ccc1NC(=O)c1cc2ccccc2n1C [A-770041]; settings: top dose 5.12 µM; top dose inferred
Method: as §1

Shikonin = compound: CC(C)=CC[C@@H](O)C1=CC(=O)c2c(O)ccc(O)c2C1=O [Shikonin]; settings: top dose 16 µM; top dose inferred
Method: as §1

CGP-082996 (CINK4) = compound: CCNc1cc(NC2CCC(O)CC2)nc(Nc2ccc3c(ccn3Cc3ccccc3)c2)n1 [CGP-082996 (CINK4)]; settings: top dose 5.12 µM; top dose inferred
Method: as §1

VX-702 = compound: NC(=O)c1ccc(N(C(N)=O)c2c(F)cccc2F)nc1-c1ccc(F)cc1F [VX-702]; settings: top dose 2 µM; top dose inferred
Method: as §1

Wee1 inhibitor 681640 = compound: O=C1NC(=O)c2c1c(-c1ccccc1Cl)cc1[nH]c3ccc(O)cc3c21 [Wee1 inhibitor 681640]; settings: top dose 2 µM; top dose inferred
Method: as §1

XMD8-85 = compound: COc1cc(N2CCN(C)CC2)ccc1Nc1ncc2c(n1)N(C)c1ccccc1C(=O)N2C [XMD8-85]; settings: top dose 8 µM; top dose inferred
Method: as §1

[1] = top dose 4 µM, screen: GDSC drug entry 1091, top dose inferred
[2] = top dose 5.12 µM, screen: GDSC drug entry 62
[3] = top dose 5 µM, screen: GDSC drug entry 1017, top dose inferred
[4] = top dose 10 µM, screen: GDSC drug entry 1495

Cell Line | AUC (BMS-536924; [1]) | IC50 (BMS-536924; [1]) | AUC (BMS-536924; [2]) | IC50 (BMS-536924; [2]) | AUC (BIRB 0796) | IC50 (BIRB 0796) | AUC (SB-525334) | IC50 (SB-525334) | AUC (HG-5-113-01) | IC50 (HG-5-113-01) | AUC (Olaparib; [3]) | IC50 (Olaparib; [3]) | AUC (Olaparib; [4]) | IC50 (Olaparib; [4]) | AUC (A-770041) | IC50 (A-770041) | AUC (Shikonin) | IC50 (Shikonin) | AUC (CGP-082996 (CINK4)) | IC50 (CGP-082996 (CINK4)) | AUC (VX-702) | IC50 (VX-702) | AUC (Wee1 inhibitor 681640) | IC50 (Wee1 inhibitor 681640) | AUC (XMD8-85) | IC50 (XMD8-85)
NB-4 (acute myeloid leukaemia, suspension) | 0.767 | 1.23 µM | 0.991 | > 5.12 µM | 0.991 | > 10 µM | 0.918 | > 20 µM | 0.632 | 1.34 µM | 0.964 | > 5 µM | 0.961 | > 10 µM | 0.824 | 2.35 µM | 0.646 | 2.33 µM | 0.959 | > 5.12 µM | 0.966 | > 2 µM | 0.972 | > 2 µM | 0.889 | 6.26 µM
NCI-H82 (small cell lung carcinoma, suspension) | 0.977 | > 4 µM | 0.963 | > 5.12 µM | 0.989 | > 10 µM | 0.863 | 15.8 µM | 0.76 | 3.36 µM | 0.982 | > 5 µM | 0.983 | > 10 µM | 0.987 | > 5.12 µM | 0.958 | > 16 µM | 0.967 | > 5.12 µM | 0.939 | > 2 µM | 0.919 | > 2 µM | 0.97 | > 8 µM
NCI-H226 (lung squamous cell carcinoma, adherent) | 0.843 | 3.04 µM | 0.918 | > 5.12 µM | 0.984 | > 10 µM | 0.967 | > 20 µM | 0.75 | 3.4 µM | 0.979 | > 5 µM | 0.968 | > 10 µM | 0.977 | > 5.12 µM | 0.411 | 0.562 µM | 0.972 | > 5.12 µM | 0.983 | > 2 µM | 0.987 | > 2 µM | 0.864 | 7.55 µM
NCI-H345 (small cell lung carcinoma, suspension) | 0.95 | > 4 µM | 0.867 | 5 µM | 0.989 | > 10 µM | 0.989 | > 20 µM | 0.92 | > 10 µM | 0.99 | > 5 µM | 0.978 | > 10 µM | 0.943 | > 5.12 µM | 0.495 | 0.969 µM | 0.99 | > 5.12 µM | 0.99 | > 2 µM | 0.987 | > 2 µM | 0.99 | > 8 µM
NCI-H446 (small cell lung carcinoma, semi-adherent) | 0.935 | > 4 µM | 0.917 | > 5.12 µM | 0.979 | > 10 µM | 0.938 | > 20 µM | 0.751 | 3.5 µM | 0.984 | > 5 µM | 0.972 | > 10 µM | 0.885 | > 5.12 µM | 0.817 | 9.76 µM | 0.978 | > 5.12 µM | 0.98 | > 2 µM | 0.985 | > 2 µM | 0.937 | > 8 µM
NCI-H524 (small cell lung carcinoma, suspension) | 0.931 | > 4 µM | 0.926 | > 5.12 µM | 0.989 | > 10 µM | 0.976 | > 20 µM | 0.645 | 1.5 µM | 0.963 | > 5 µM | 0.979 | > 10 µM | 0.99 | > 5.12 µM | 0.987 | > 16 µM | 0.968 | > 5.12 µM | 0.964 | > 2 µM | 0.977 | > 2 µM | 0.958 | > 8 µM
NCI-H720 (lung carcinoid, suspension) | 0.971 | > 4 µM | 0.986 | > 5.12 µM | 0.992 | > 10 µM | 0.984 | > 20 µM | 0.886 | 9.47 µM | 0.992 | > 5 µM | 0.981 | > 10 µM | 0.848 | 3.34 µM | 0.989 | > 16 µM | 0.987 | > 5.12 µM | 0.989 | > 2 µM | 0.987 | > 2 µM | 0.992 | > 8 µM
NCI-H747 (large intestine, adherent) | 0.904 | > 4 µM | 0.622 | 0.746 µM | 0.981 | > 10 µM | 0.942 | > 20 µM | 0.764 | 4.4 µM | 0.98 | > 5 µM | 0.962 | > 10 µM | 0.76 | 2.18 µM | 0.377 | 0.425 µM | 0.805 | 3.29 µM | 0.98 | > 2 µM | 0.981 | > 2 µM | 0.921 | > 8 µM
NCI-H847 (small cell lung carcinoma, adherent) | 0.881 | 2.83 µM | 0.921 | > 5.12 µM | 0.993 | > 10 µM | 0.921 | > 20 µM | 0.605 | 1.14 µM | 0.993 | > 5 µM | 0.986 | > 10 µM | 0.988 | > 5.12 µM | 0.487 | 0.927 µM | 0.992 | > 5.12 µM | 0.993 | > 2 µM | 0.984 | > 2 µM | 0.96 | > 8 µM

The IC50 comes from the fitted curve, where viability falls to half of the control; where the fit passes the top or lowest dose, that dose stands as a limit. AUC sums up the same curve from the lowest dose to the 256-fold higher top dose: 1 means no effect, lower means more sensitive. Where the top dose is marked as inferred, it comes from the curve model; the source does not state it. For part of these data: An entry number marks a drug with two screens in the source, which often give different values.
